In PubChem BioAssay AID686979 (National Center for Advancing Translational Sciences (NCATS), 2013):
Values joined by “and” are separate entries in the source; they are usually repeats but may differ in a detail not shown here. Equal entries are not always repeated. The campaign covered roughly 420,000 compounds. About 50,000 (12%) were called active. Inconclusive means that the source gave no clear call. Such entries were picked first, then a sample of the others. Calls follow the shape of the dose curve; as a rule, active = well fitted inhibition curve with a large enough effect; inconclusive = small, poorly fitted or top-dose-only effect; inactive = flat fitted curve, though single readings scatter. Potencies of inconclusive entries are doubtful fits and often do not repeat.
% is scaled to controls: 0 for no effect and ±100 for the full control effect; potency is read from the fitted curve at half-maximal effect; tags tell the direction and shape of the fitted curve.

Assay: qHTS for Inhibitors of human tyrosyl-DNA phosphodiesterase 1 (TDP1): qHTS in cells in presence of CPT; also: nearly all actives have a fitted effect of over 55% in size
Conditions: chicken DT40 Tdp1-/-;hTDP1 cells + 20 nM CPT, ATP luminescence, 48 h; activity change, negative = growth inhibition: at 46.2 µM (top of the series)
Summary of the method: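 Cell growth measured by CellTiter-Glo luminescence after a minimum 48 h, 37 C compound exposure with 20 nM CPT in Tdp1-knockout DT40 cells stably expressing hTDP1, seeded 400/well; qHTS titration format.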
In the case of `O=C(NCC1CCCO1)Nc1ccc(Cl)cc1` (configuration not stated), the activity change, negative = growth inhibition is reported as inconclusive: -32.4% [inhibitor]. For `COC(=O)CCCN1C(=O)NC(c2ccc(-c3ccccc3)cc2)C(C(=O)OCc2ccccc2)=C1C` (configuration not stated), the Potency was inconclusive: 29.1 µM [inhibitor, single point]. With `CN(Cc1ccccc1)C(=O)COc1ccc(N(C)S(=O)(=O)c2ccc(F)cc2)cc1` the Potency was active: 16.4 µM. In the case of `Cn1c(CSCc2ccc(Cl)c(Cl)c2)n[nH]c1=S`, the Potency is reported as inconclusive: 18.4 µM [inhibitor, single point]. With `Cc1c(C(=O)Nc2cccc(C#N)c2)sc2nc3n(c(=O)c12)CCCCC3` the Potency was active: 16.4 µM. For `CC(=O)NC(c1cccc(F)c1)c1nc(-c2ccccc2)cs1` (configuration not stated), the Potency was inconclusive: 29.1 µM [inhibitor, single point]. In the case of `Clc1ccc(N2CCN(/N=C/c3ccncc3)CC2)cc1`, the Potency is reported as active: 23.1 µM. For `CCCCc1ccc(C(=O)COC(=O)c2ccc3nc(C)c(C)nc3c2)cc1`, the Potency was inconclusive: 35.5 µM [inhibitor, single point]. For `CCOC(=O)C1=CCC(c2ccccc2)N(S(=O)(=O)c2ccc(C)cc2)[C@H]1CC` (some centres not stated), the Potency was active: 20.6 µM. With `CC(/C=N/NC(=O)c1cc(-c2ccc(C)o2)[nH]n1)=C\c1ccccc1` the Potency was active: 14.6 µM. In the case of `CCc1ccc(S(=O)(=O)c2nnn3c2nc(N2CCC(C(N)=O)CC2)c2cc(Cl)ccc23)cc1`, the Potency is reported as inconclusive: 29.1 µM [inhibitor, single point]. With `Cn1c(=O)c2c(ncn2CC(=O)N2CCN(c3ccccc3F)CC2)n(C)c1=O` the “activity change, negative = growth inhibition” value was inactive: -6.74%. With `Cc1cccc(NC(=O)COC(=O)c2c(-c3ccccc3)noc2C)c1` the Potency was inconclusive: 18.4 µM [inhibitor, partial curve, poor fit]. With `CC1(C)C[C@H](O)[C@@]23C[C@@H](OC2=O)[C@]2(C)C(=CCC4[C@@]5(C)CC[C@H](O)C(C)(C)C5CC[C@]42C)[C@@H]3C1` (some centres not stated) the “activity change, negative = growth inhibition” value was inactive: -9.85%. For `CC1(C)CC(=O)C2=C(C1)C(c1cn(-c3ccccc3)nc1-c1ccccc1)C(C#N)=C(N)O2` (configuration not stated), the Potency was inconclusive: 29.1 µM [inhibitor, single point]. For `COc1ccc(-c2csc(NC(=O)CSc3ncn[nH]3)n2)cc1OC`, the Potency was inconclusive: 16.4 µM [inhibitor, partial curve]. For `Clc1ccc(-c2csc3ncnc(Sc4nnnn4-c4ccccc4)c23)cc1`, the Potency was active: 3.55 µM. In the case of `O=C(N/N=C/c1ccccn1)c1ccc(NC(=O)c2ccccc2Cl)cc1`, the “activity change, negative = growth inhibition” value is reported as inactive: -27.2%. With `CC1CN(C(=O)N2CCC(C(=O)NCc3ccco3)CC2)c2ccccc2O1` (configuration not stated) the “activity change, negative = growth inhibition” value was inactive: 4.84%. In the case of `O=C(NCCCN1CCCC1=O)c1cc(=O)c2ccccc2o1`, the “activity change, negative = growth inhibition” value is reported as inactive: 4.67%. In the case of `Cc1cc(NC(=O)COC(=O)c2cnccn2)ccc1Br`, the “activity change, negative = growth inhibition” value is reported as inactive: -20.3%. For `CC(=O)/C(=N/Nc1cccc(Cl)c1)N1CCOCC1`, the Potency was inconclusive: 23.1 µM [inhibitor, single point]. In the case of `COCCCn1c(SCC(=O)c2ccccc2)nc2ccccc2c1=O`, the Potency is reported as inconclusive: 20.6 µM [inhibitor, single point]. For `Cc1cccc(CN2C(=O)c3ccccc3Sc3ccc(C(=O)NCCCN4CCOCC4)cc32)c1`, the Potency was inconclusive: 20.6 µM [inhibitor, single point] and inconclusive: 16.4 µM [inhibitor, single point]. In the case of `O=C(Nc1nc2ccccc2n1CCOc1ccccc1Cl)c1ccccc1`, the Potency is reported as inconclusive: 7.31 µM [inhibitor, partial curve]. For `CC(NC(=O)/C=C/c1ccc(Br)cc1)c1ccc(Cl)cc1` (configuration not stated), the Potency was inconclusive: 20.6 µM [inhibitor, partial curve, poor fit]. In the case of `COc1ccccc1C1CN=NC12CCCc1ccccc1C2=O` (configuration not stated), the Potency is reported as inconclusive: 29.1 µM [inhibitor, single point]. With `COC(=O)N/N=C/c1cn(Cc2ccc(Cl)cc2Cl)c2ccccc12` the Potency was inconclusive: 29.1 µM [inhibitor, single point]. In the case of `COC(=O)[C@@]1(Cc2ccc(OC)cc2)[C@H]2c3cc(C(=O)N4CCCC4)n(CCc4c[nH]c5ccccc45)c3C[C@H]2CN1C(=O)c1ccccc1`, the Potency is reported as inconclusive: 29.1 µM [inhibitor, single point]. For `CCOC(=O)c1c(NC(=O)C2CC(Cl)=CCC2C(=O)O)sc2c1CC(C)(C)OC2` (configuration not stated), the “activity change, negative = growth inhibition” value was inactive: 7.57%. For `CN(CC(=O)Nc1cccc(F)c1)C(=O)CCCn1c(=O)oc2ccccc21`, the Potency was inconclusive: 25.9 µM [inhibitor, single point]. For `O=C(Nc1ccccc1C(=O)Nc1ccc2c(c1)OCO2)c1cccs1`, the Potency was inconclusive: 23.1 µM [inhibitor, single point]. For `Cc1cccc(C)c1-n1nnnc1C1(C)CCC(=O)N1Cc1cccnc1` (configuration not stated), the “activity change, negative = growth inhibition” value was inactive: -9.27%. For `COc1cc(OC)c(C(=O)NC23CC4CC(CC(C4)C2)C3)cc1OC`, the Potency was inconclusive: 25.9 µM [inhibitor, single point]. In the case of `Cc1ccc(C(C(=O)NCC2CCCO2)N(Cc2ccccc2)C(=O)c2ccc(-c3ccccc3)[nH]2)o1` (configuration not stated), the Potency is reported as inconclusive: 25.9 µM [inhibitor, single point]. For `COc1ccc(S(=O)(=O)Nc2nnc(Cc3ccc(OC)c(OC)c3)s2)cc1`, the “activity change, negative = growth inhibition” value was inactive: 3.71%. For `CCN(CC)c1ccc(/C=C/c2ccc3ccccc3n2)cc1`, the Potency was active: 0.158 µM. With `CCc1nc(SCC(=O)c2cccs2)c2oc3ccccc3c2n1` the Potency was inconclusive: 29.1 µM [inhibitor, single point]. For `CCC1OC(=O)C(C)[C@@H](O[C@H]2C[C@@](C)(OC)C(O)C(C)O2)C(C)[C@@H](O[C@@H]2OC(C)CC(N(C)C)C2O)[C@@](C)(O)CC(C)CN(C)C(C)C(O)[C@]1(C)O` (some centres not stated), the Potency was inconclusive: 29.1 µM [inhibitor, single point]. For `O=C(c1ccc2c(c1)OCCO2)C1CCN(C(=O)c2ccc(F)cc2)CC1`, the Potency was inconclusive: 29.1 µM [inhibitor, single point]. For `CCc1ccc(N2C(=O)C(Cl)=C(N3CCOCC3)C2=O)cc1`, the Potency was inconclusive: 29.1 µM [inhibitor, single point]. In the case of `COc1ccc(CNC(=O)C2CCC(CNS(=O)(=O)c3ccc(C)cc3)CC2)cc1` (configuration not stated), the Potency is reported as inconclusive: 18.4 µM [inhibitor, single point]. For `Cc1c(Cl)cccc1NC(=O)C1Cc2ccccc2CN1C(=O)c1ccccc1` (configuration not stated), the Potency was inconclusive: 29.1 µM [inhibitor, single point]. With `Cc1cnc(-n2ncc(C(=O)NCCN3CCOCC3)c2C(C)C)nc1-c1ccc(F)cc1` the “activity change, negative = growth inhibition” value was inactive: 0.498%. With `COc1cc(CN2CCC(C(=O)NC(c3ccccc3)c3ccsc3)CC2)cc(OC)c1` (configuration not stated) the Potency was active: 16.4 µM. With `O/C(=C\c1nc2ccccc2nc1/C=C(\O)c1ccccc1)c1ccccc1` the Potency was inconclusive: 18.4 µM [inhibitor, single point]. For `COc1ccc(NC(=O)CSCC(=O)N(C)CCOc2ccc(Cl)cc2)cc1`, the Potency was inconclusive: 25.9 µM [inhibitor, single point]. With `CN(C)c1ccc(-n2cccc2/C=C/[N+](=O)[O-])cc1` the Potency was active: 16.4 µM. With `CCN(CC)S(=O)(=O)c1nnc(NC(=O)c2ccc(C)cc2)s1` the “activity change, negative = growth inhibition” value was inactive: -16.4%. In the case of `COc1ccc(CNC(=O)N[C@H](C(=O)O)C(C)C)cc1OC`, the “activity change, negative = growth inhibition” value is reported as inactive: 1.14%. With `O=C(CNCCC1=CCCCC1)Nc1ccccc1N1CCCCCC1` the Potency was active: 20.6 µM. For `O=C(CNS(=O)(=O)c1ccccc1F)Nc1ccc(N2CCOCC2)cc1`, the activity change, negative = growth inhibition was inconclusive: -34.6% [inhibitor]. For `CC1CCC2(CC1)NC(=O)N(CC(=O)Nc1cccc(S(=O)(=O)N3CCCC3)c1)C2=O` (configuration not stated), the Potency was inconclusive: 18.4 µM [inhibitor, single point]. For `CCOC(=O)c1ccc(S(=O)(=O)Nc2cc(S(=O)(=O)Nc3ccc(OC)cc3)ccc2O)cc1`, the “activity change, negative = growth inhibition” value was inactive: -3.25%. For `c1ccc(-c2ccccc2OCCCCN2CCCCC2)cc1`, the Potency was inconclusive: 20.6 µM [inhibitor, single point]. With `Cc1ccc2c(c1)C1CN(C)CCC1N2S(=O)(=O)c1ccc(Oc2ccc([N+](=O)[O-])cc2)cc1` (configuration not stated) the Potency was inconclusive: 29.1 µM [inhibitor, single point]. In the case of `COC(=O)/C(=C1/OC(=O)C(c2ccccc2)=C1O)c1ccccc1`, the activity change, negative = growth inhibition is reported as inactive: 5.56% [at 9.04 µM]. In the case of `COc1ccccc1C1C(C(=O)Nc2ccccc2)=C(C)Nc2nc(-c3ccccc3)nn21` (configuration not stated), the Potency is reported as inconclusive: 23.1 µM [inhibitor, single point]. For `COc1ccccc1-c1nnc(-c2ccc(N3CCOCC3)cc2)o1`, the Potency was inconclusive: 20.6 µM [inhibitor, single point]. In the case of `Cc1cccc(OCCNC(=S)NC(=O)c2cccnc2)c1`, the Potency is reported as inconclusive: 32.6 µM [inhibitor, single point]. In the case of `COc1ccccc1N1CCN(Cc2nc(-c3cc(OC)c(OC)c(OC)c3)no2)CC1`, the Potency is reported as active: 23.1 µM. In the case of `CC(=O)N1CCc2cc(S(=O)(=O)NC(Cc3ccccc3)C(=O)Nc3cc(C)cc(C)c3)ccc21` (configuration not stated), the Potency is reported as inconclusive: 29.1 µM [inhibitor, single point]. For `CC(C)(C)c1ccc(NC(=O)c2ccc(=O)[nH]n2)cc1`, the Potency was inconclusive: 7.31 µM [inhibitor, partial curve]. With `CC(=O)Nc1ccc(NC(=O)C2CC(=O)N(c3cccc(Cl)c3)C2)cc1` (configuration not stated) the Potency was inconclusive: 29.1 µM [inhibitor, single point]. For `CSC1=C(C#N)C(=O)NC(c2ccc(Cl)cc2)S1` (configuration not stated), the Potency was inconclusive: 20.6 µM [inhibitor, single point]. In the case of `CCN(Cc1ccccc1)C(=O)c1cn(-c2cccc(OC)c2)c(=O)c2ccccc12`, the Potency is reported as active: 18.4 µM. With `CCN(CC)c1ccc(NS(=O)(=O)c2ccc(OC)cc2)cc1` the “activity change, negative = growth inhibition” value was inactive: 19.9%.
